Test results taken from patent publication US20260166021A1, “POLYMORPHIC FORMS OF A SOLUBLE EPOXIDE HYDROLASE INHIBITOR AND FORMULATIONS THEREOF” (EicOsis, LLC, priority 2022, published 2026).
Some values that stand alone complete this part of the results.

Assay: Differential scanning calorimetry (DSC): heat of fusion, thermal events
Assay type: physicochemical
Description: Differential scanning calorimetry analyses were performed on each sample “as is.” Unless otherwise specified, samples were weighed in an aluminum pan, covered with a pierced lid, and then crimped and analyzed from 30-300° C. ramped at 10° C./min.
The DSC data were used to determine the heat of fusion for Forms A, B, D, and F, based on their heats of fusion as measured during conversion from Form C.

SMILES: CC[C@H](C)C(=O)N1CCC(NC(=O)Nc2ccc(OC(F)(F)F)c(F)c2)CC1 [L]
- DSC Thermal Events, Endo: dehydration of bound water/desolvation of pattern L (first dehydration/desolvation endotherm): 114 °C dehydration of bound water/
- DSC Thermal Events, Endo: dehydration of bound water/desolvation of pattern L (second dehydration/desolvation endotherm): 124 °C dehydration of bound water/
